{
  "source": "PubChem BioAssay (Tox21)",
  "key": {"[1]": {"assay": "qHTS assay for small molecule agonists of the p53 signaling pathway - cell viability (AID 651633; calls by dose curve; also: potency is read from the fitted curve at half-maximal effect; nearly all actives have a fitted effect of over 30% in size)", "outline": "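Viability counter-read: CellTiter-Glo luminescence (30 min, room temperature) in the same p53RE-bla plates. These plates had been exposed to compounds for 16 h at 37 C.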"}, "[2]": {"assay": "qHTS assay for small molecules that induce genotoxicity in human embryonic kidney cells expressing luciferase-tagged ATAD5 - cell viability (AID 651634; calls by dose curve; also: nearly all actives have a fitted effect of over 25% in size; also: potency is read from the fitted curve at half-maximal effect)", "outline": "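Cytotoxicity counter-readout: after 15.5 hr compound treatment at 37C, live-cell protease activity in ATAD5-luciferase HEK293T cells measured by CellTiter-Fluor fluorescence, 30 min development at 37C.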"}, "[3]": {"biological_target": "Glucocorticoid receptor (Homo sapiens) (UniProt P04150)", "sequence (P04150 whole entry, looked up)": "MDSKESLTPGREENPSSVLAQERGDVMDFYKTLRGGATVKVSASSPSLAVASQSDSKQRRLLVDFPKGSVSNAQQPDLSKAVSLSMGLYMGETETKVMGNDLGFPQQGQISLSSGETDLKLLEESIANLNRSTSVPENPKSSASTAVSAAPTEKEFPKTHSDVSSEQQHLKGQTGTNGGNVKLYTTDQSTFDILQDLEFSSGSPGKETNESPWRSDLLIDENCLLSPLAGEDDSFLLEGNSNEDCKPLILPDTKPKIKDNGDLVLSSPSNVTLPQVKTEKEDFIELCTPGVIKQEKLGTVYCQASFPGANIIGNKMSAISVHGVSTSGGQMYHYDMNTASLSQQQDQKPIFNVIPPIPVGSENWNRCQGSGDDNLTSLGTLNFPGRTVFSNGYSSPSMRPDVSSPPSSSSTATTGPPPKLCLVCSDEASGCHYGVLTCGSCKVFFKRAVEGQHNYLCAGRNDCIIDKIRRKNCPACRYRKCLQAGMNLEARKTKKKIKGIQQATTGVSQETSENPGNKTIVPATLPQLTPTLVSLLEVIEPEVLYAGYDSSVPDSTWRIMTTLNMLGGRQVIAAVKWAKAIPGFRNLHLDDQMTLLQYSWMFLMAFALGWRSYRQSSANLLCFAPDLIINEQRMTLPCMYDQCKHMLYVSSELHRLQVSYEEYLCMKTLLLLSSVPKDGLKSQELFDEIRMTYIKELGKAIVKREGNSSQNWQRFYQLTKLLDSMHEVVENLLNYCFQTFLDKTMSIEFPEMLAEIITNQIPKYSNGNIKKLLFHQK", "assay": "qHTS assay to identify small molecule antagonists of the glucocorticoid receptor (GR) signaling pathway (AID 720692; active = well fitted inhibition curve with a large enough effect in the signal ratio in the repeat runs, not every such curve was filed as active; inconclusive = weak or mixed curves, or effect the other way; inactive = no such curve, though single readings can be large or run the other way; the % refers to the signal ratio; also: % is scaled to controls: 0 for no effect and ±100 for the full control effect)", "settings": "GR-bla HeLa, beta-lactamase FRET ratio, dexamethasone-stimulated, 18 h; activity change, negative = inhibition: at 58.5 µM (top of the series) unless noted", "outline": "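Inhibition of dexamethasone-driven (5 nM final) beta-lactamase expression was measured in GRE-reporter HeLa cells over 18 h at 37C. Fluorescence was read after 2 h with the B/G FRET substrate at room temperature.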"}, "[4]": {"assay": "qHTS assay for identifying genotoxic compounds that show differential cytotoxicity against isogenic chicken DT40 cell lines with known DNA damage response pathways - Rev3 mutant cell line (AID 743014); also: potency is read from the fitted curve at half-maximal effect; nearly all actives have a fitted effect of over 55% in size", "settings": "chicken DT40 Rev3-/- viability, CellTiter-Glo, 40 h; activity, negative = cytotoxicity: at 68.4 µM (top of the series)"}, "[5]": {"assay": "qHTS assay to identify small molecule antagonists of the androgen receptor (AR) signaling pathway - cell viability counter screen (AID 743033; also: potency is read from the fitted curve at half-maximal effect; nearly all actives have a fitted effect of over 45% in size)"}, "[6]": {"biological_target": "Androgen receptor (Homo sapiens) (UniProt P10275)", "sequence (P10275 whole entry, looked up)": "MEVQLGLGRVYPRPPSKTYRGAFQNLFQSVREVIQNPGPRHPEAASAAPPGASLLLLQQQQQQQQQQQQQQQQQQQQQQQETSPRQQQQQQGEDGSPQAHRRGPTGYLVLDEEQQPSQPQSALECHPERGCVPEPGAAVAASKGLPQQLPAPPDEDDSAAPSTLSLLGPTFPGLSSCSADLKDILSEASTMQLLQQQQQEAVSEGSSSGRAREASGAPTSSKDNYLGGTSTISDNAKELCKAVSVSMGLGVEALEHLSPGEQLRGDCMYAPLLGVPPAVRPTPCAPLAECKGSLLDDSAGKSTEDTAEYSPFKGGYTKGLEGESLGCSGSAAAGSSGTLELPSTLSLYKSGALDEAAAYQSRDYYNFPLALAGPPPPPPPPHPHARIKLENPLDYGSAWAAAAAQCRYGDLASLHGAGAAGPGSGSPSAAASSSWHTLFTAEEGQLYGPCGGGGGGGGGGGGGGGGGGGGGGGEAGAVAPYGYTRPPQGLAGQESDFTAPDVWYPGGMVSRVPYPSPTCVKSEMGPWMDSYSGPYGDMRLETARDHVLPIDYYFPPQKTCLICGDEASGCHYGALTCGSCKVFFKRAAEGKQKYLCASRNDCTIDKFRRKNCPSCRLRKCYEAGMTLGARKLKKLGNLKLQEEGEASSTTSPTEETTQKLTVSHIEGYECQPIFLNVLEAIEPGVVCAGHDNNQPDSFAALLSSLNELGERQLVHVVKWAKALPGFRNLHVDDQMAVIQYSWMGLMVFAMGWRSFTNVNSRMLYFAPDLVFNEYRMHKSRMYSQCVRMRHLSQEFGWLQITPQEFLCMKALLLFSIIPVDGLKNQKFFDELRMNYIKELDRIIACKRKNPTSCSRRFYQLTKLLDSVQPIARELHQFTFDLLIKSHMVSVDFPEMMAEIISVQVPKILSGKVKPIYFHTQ", "assay": "qHTS assay to identify small molecule antagonists of the androgen receptor (AR) signaling pathway (AID 743035; active = well fitted inhibition curve with a large enough effect in the signal ratio in the repeat runs, not every such curve was filed as active; inconclusive = weak or mixed curves, or effect the other way; inactive = no such curve, though single readings can be large or run the other way; the % refers to the signal ratio; also: potency is read from the fitted curve at half-maximal effect)", "settings": "HEK293 AR-UAS-bla, R1881-stimulated, beta-lactamase FRET, 16 h; activity change, negative = inhibition: at 58.5 µM (top of the series) unless noted", "outline": "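Antagonist mode: AR-bla HEK293 cells co-treated with test compounds and agonist R1881 for 16 h at 37C, 5% CO2. Beta-lactamase activity read as FRET fluorescence after 2 h room-temperature substrate loading.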"}, "[7]": {"biological_target": "Androgen receptor (Homo sapiens) (UniProt P10275)", "assay": "qHTS assay to identify small molecule agonists of the androgen receptor (AR) signaling pathway (AID 743036; active = well fitted activation curve with a large enough effect in the signal ratio in the repeat runs, with a control signal flat, not every such curve was filed as active; inconclusive = weak or mixed curves, or effect the other way; inactive = no such curve, though single readings can be large or run the other way; the % refers to the signal ratio; also: % is scaled to controls: 0 for no effect and ±100 for the full control effect)", "settings": "HEK293 AR-UAS-bla GripTite, beta-lactamase FRET ratio, 16 h; activation: at 62.4 µM (top of the series) unless noted", "outline": "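AR-UAS-bla HEK293 cells, plated 4 h before dosing, were treated with compound for 16 h at 37C. beta-Lactamase reporter read after 2 h with LiveBLAzer B/G FRET substrate at room temperature.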"}, "[8]": {"biological_target": "Androgen receptor (Homo sapiens) (UniProt P10275)", "assay": "qHTS assay to identify small molecule antagonists of the androgen receptor (AR) signaling pathway using the MDA cell line (AID 743042; also: potency is read from the fitted curve at half-maximal effect; nearly all actives have a fitted effect of over 55% in size)", "outline": "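Antagonist mode: compounds plus R1881 agonist added to MDA-kb2 AR-luc cells, incubated 16 h at 37C. Luciferase reporter luminescence quantified, with multiplexed CellTiter-Fluor readout for cell viability.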"}, "[9]": {"assay": "qHTS assay to identify small molecule antagonists of the thyroid receptor (TR) signaling pathway - cell viability counter screen (AID 743064); also: potency is read from the fitted curve at half-maximal effect; nearly all actives have a fitted effect of over 50% in size", "settings": "GH3.TRE-Luc viability, CellTiter-Fluor, 24 h; activity change, negative = cytotoxic: at 70.3 µM (top of the series) unless noted", "outline": "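GH3.TRE-Luc rat pituitary cells dosed after 4 hr plating, co-stimulated with T3 at 1 nM final, incubated 23.5 h at 37 C. Viability measured in the same wells by CellTiter-Fluor fluorescence after 30 min further at 37 C.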"}, "[10]": {"test_system": "thyroid hormone receptor (rat, GH3 cells)", "assay": "qHTS assay to identify small molecule agonists of the thyroid receptor (TR) signaling pathway (AID 743066; calls by dose curve; also: % is scaled to controls: 0 for no effect and ±100 for the full control effect)", "settings": "GH3.TRE-Luc cells, TR agonist luciferase, 24 h; activation: at 83.9 µM (top of the series) unless noted"}, "[11]": {"biological_target": "Estrogen receptor (Homo sapiens) (UniProt P03372)", "sequence (P03372 whole entry, looked up)": "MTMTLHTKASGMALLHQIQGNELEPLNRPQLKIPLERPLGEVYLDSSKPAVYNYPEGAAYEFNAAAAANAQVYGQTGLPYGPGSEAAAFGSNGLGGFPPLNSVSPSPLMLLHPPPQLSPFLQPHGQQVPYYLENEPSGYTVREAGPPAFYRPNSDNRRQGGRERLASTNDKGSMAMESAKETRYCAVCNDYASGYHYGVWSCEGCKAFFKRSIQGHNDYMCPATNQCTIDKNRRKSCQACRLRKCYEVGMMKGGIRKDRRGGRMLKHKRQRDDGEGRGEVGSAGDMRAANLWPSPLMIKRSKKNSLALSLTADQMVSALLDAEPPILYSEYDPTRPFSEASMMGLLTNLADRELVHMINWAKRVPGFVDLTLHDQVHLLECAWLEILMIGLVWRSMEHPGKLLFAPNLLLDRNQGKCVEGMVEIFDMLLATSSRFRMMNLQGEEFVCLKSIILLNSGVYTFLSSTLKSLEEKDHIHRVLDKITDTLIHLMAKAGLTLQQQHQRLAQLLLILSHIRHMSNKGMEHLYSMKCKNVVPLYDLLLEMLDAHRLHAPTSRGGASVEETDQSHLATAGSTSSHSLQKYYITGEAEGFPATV", "assay": "qHTS assay to identify small molecule antagonists of the estrogen receptor alpha (ER-alpha) signaling pathway (AID 743069; active = well fitted curve in the direction sought with a large enough effect in the signal ratio in the repeat runs, not every such curve was filed as active; inconclusive = weak or mixed curves, or effect the other way; inactive = no such curve, though single readings can be large or run the other way; the % refers to the signal ratio; also: potency is read from the fitted curve at half-maximal effect)", "settings": "HEK293 ER-alpha-UAS-bla, beta-lactamase ratio, antagonist mode; activity, negative = inhibition: at 69.4 µM (top of the series) unless noted", "outline": "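Fluorescence intensity from a beta-lactamase FRET substrate served as the read-out. Cells: HEK293 with stably integrated ER-alpha-UAS-bla reporter. Agonist 17beta-estradiol was co-added with compounds; incubation 18 hr at 37C, substrate 2 hr at room temperature.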"}, "[12]": {"assay": "qHTS assay to identify small molecule antagonists of the estrogen receptor alpha (ER-alpha) signaling pathway - cell viability counter screen (AID 743074; calls by dose curve; also: potency is read from the fitted curve at half-maximal effect; nearly all actives have a fitted effect of over 45% in size)"}, "[13]": {"biological_target": "Estrogen receptor (Homo sapiens) (UniProt P03372)", "assay": "qHTS assay to identify small molecule agonists of the estrogen receptor alpha (ER-alpha) signaling pathway using the BG1 cell line (AID 743079); also: % is scaled to controls: 0 for no effect and ±100 for the full control effect; nearly all actives have a fitted effect of over 20% in size", "settings": "BG1Luc4E2 cells, ERE-luciferase agonist, 22 h; activation: at 70.3 µM (top of the series) unless noted"}, "[14]": {"assay": "qHTS assay to identify small molecule antagonists of the estrogen receptor alpha (ER-alpha) signaling pathway using the BG1 cell line (AID 743080; calls by dose curve; also: nearly all actives have a fitted effect of over 25% in size; also: potency is read from the fitted curve at half-maximal effect)", "settings": "BG1Luc4E2 ERE-luciferase antagonist mode, luminescence; activity change, negative = inhibition: at 70.3 µM (top of the series) unless noted", "outline": "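Luciferase inhibition measured with ONE-Glo after 30 min at RT in BG1Luc4E2 cells given test compounds and 17beta-estradiol for 21.5 h at 37 C; CellTiter-Fluor viability read in the same wells beforehand.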"}, "[15]": {"assay": "qHTS assay to identify aromatase inhibitors - cell viability counter screen (AID 743084);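 also: cells stimulated with testosterone during compound exposure; potency is read from the fitted curve at half-maximal effect; nearly all actives have a fitted effect of over 55% in size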", "settings": "MCF-7 aro ERE viability, CellTiter-Fluor, 24 h; activity change, negative = cytotoxicity: at 70.3 µM (top of the series)"}, "[16]": {"assay": "qHTS assay to identify small molecule that activate the aryl hydrocarbon receptor (AhR) signaling pathway - cell viability counter screen (AID 743086); also: potency is read from the fitted curve at half-maximal effect; nearly all actives have a fitted effect of over 45% in size", "outline": "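Cytotoxicity counter screen: CellTiter-Fluor signal (30 min, 37 C) in 4000 HepG2 cells/well carrying the DRE-luciferase reporter, following 24 h compound exposure at 37 C.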"}, "[17]": {"biological_target": "Peroxisome proliferator-activated receptor gamma (Homo sapiens) (UniProt P37231)", "sequence (P37231 whole entry, looked up)": "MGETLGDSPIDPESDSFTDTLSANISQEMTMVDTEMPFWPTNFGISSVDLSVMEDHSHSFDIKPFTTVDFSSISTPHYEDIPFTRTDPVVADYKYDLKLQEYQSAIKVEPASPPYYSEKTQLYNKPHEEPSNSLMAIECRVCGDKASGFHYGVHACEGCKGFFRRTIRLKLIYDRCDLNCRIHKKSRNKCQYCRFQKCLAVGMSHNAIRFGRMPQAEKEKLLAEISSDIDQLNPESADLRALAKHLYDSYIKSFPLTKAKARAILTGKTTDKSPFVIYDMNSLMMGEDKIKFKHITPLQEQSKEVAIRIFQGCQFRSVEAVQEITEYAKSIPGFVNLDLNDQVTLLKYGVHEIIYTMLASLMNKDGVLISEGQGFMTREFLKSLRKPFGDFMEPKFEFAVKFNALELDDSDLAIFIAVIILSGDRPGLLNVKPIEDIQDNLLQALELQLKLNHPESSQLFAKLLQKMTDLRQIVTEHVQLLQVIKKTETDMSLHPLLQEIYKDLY", "assay": "qHTS assay to identify small molecule agonists of the peroxisome proliferator-activated receptor gamma (PPARg) signaling pathway (AID 743094; active = well fitted activation curve with a large enough effect in the signal ratio in the repeat runs, not every such curve was filed as active; inconclusive = weak or mixed curves, or effect the other way; inactive = no such curve, though single readings can be large or run the other way; the % refers to the signal ratio; also: potency is read from the fitted curve at half-maximal effect; as to activation: % is scaled to controls: 0 for no effect and ±100 for the full control effect)", "settings": "HEK293H PPARg-UAS-bla, beta-lactamase FRET ratio, 17 h; activation: at 57 µM (top of the series) unless noted", "outline": "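Agonist activity was taken from a beta-lactamase reporter (FRET substrate, 1 h at room temperature) in HEK293H cells carrying a PPARg UAS-bla construct. Compounds in DMSO were incubated 17 h at 37C after a 5 h cell pre-incubation.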"}, "[18]": {"assay": "qHTS assay for small molecule disruptors of the mitochondrial membrane potential (AID 720635); also: potency is read from the fitted curve at half-maximal effect", "settings": "HepG2 mitochondrial membrane potential, Mito-MPS dye ratio; ratio activity, negative = MMP loss: at 83.2 µM (top of the series) unless noted", "outline": "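Mitochondrial membrane potential tracked with Mito-MPS dye, red aggregates (ex 540/em 590 nm) against green monomers (ex 490/em 535 nm). Compound treatment 1 hr at 37C, dye 30 min in HepG2.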"}, "[19]": {"assay": "qHTS assay for small molecule agonists of the p53 signaling pathway (AID 651631; calls by dose curve; also: % is scaled to controls: 0 for no effect and ±100 for the full control effect; nearly all actives have a fitted effect of over 15% in size)", "settings": "HCT-116 p53RE-bla reporter, beta-lactamase FRET ratio, 16 h; activation: at 73.3 µM (top of the series) unless noted", "outline": "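HCT-116 cells carrying a beta-lactamase reporter under p53 response elements were dosed with compound for 16 h at 37 °C. LiveBLAzer B/G FRET substrate was then added for 2 h at room temperature, and fluorescence intensity was read to detect pathway agonism.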"}, "[20]": {"assay": "qHTS assay to identify small molecule antagonists of the estrogen receptor alpha (ER-alpha) signaling pathway using the BG1 cell line - cell viability counter screen (AID 743081);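 also: compound given together with 17beta-estradiol as the ER stimulus; % is scaled to controls: 0 for no effect and ±100 for the full control effect; nearly all actives have a fitted effect of over 45% in size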", "settings": "BG1Luc4E2 viability, CellTiter-Fluor, 22 h; activity change, negative = cytotoxicity: at 70.3 µM (top of the series)"}},
  "note": "Inconclusive means that the source gave no clear call. Such entries were picked first, then a sample of the others. For part of these data: Potencies of inconclusive entries are left out as doubtful fits. Activity calls are given as the source filed them. Unless noted, calls follow the shape of the dose curve; as a rule, active = well fitted curve in the direction sought with a large enough effect in the repeat runs; inconclusive = weak or mixed curves; inactive = no such curve, though single readings can be large; an effect the other way counts as inactive or inconclusive. Tags tell the direction and shape of the fitted curve or compound fluorescence and quenching.",
  "data": [
    {"smiles": "O=c1c2ccccc2[se]n1-c1ccccc1", "values": [
      {"measurement": "Potency", "setting": "[1]", "result": "inconclusive [cytotoxic, partial curve, poor fit]"},
      {"measurement": "Potency", "setting": "[2]", "result": "inconclusive [falling, partial curve]"},
      {"measurement": "activity change, negative = inhibition", "setting": "[3]", "result": "inconclusive: -16.2%"},
      {"measurement": "Potency", "setting": "[4]", "result": "active: 8.41 µM"},
      {"measurement": "Potency", "setting": "[5]", "result": "inconclusive [cytotoxic, partial curve]"},
      {"measurement": "Potency", "setting": "[6]", "result": "inconclusive [falling, single point]"},
      {"measurement": "activation", "setting": "[7]", "result": "inconclusive: 23.4%"},
      {"measurement": "Potency", "setting": "[8]", "result": "inconclusive [inhibitor, single point]"},
      {"measurement": "Potency", "setting": "[9]", "result": "active: 23.7 µM"},
      {"measurement": "activation", "setting": "[10]", "result": "inconclusive: -7.21% [phenotype inactive]"},
      {"measurement": "Potency", "setting": "[11]", "result": "inconclusive [rising, partial curve, poor fit]"},
      {"measurement": "Potency", "setting": "[12]", "result": "inconclusive [cytotoxic, single point]"},
      {"measurement": "activation", "setting": "[13]", "result": "inconclusive: -14.3% [phenotype inactive]"},
      {"measurement": "Potency", "setting": "[14]", "result": "inconclusive [rising, single point]"},
      {"measurement": "Potency", "setting": "[15]", "result": "active: 26.6 µM"},
      {"measurement": "Potency", "setting": "[16]", "result": "inconclusive [falling, single point]"},
      {"measurement": "activation", "setting": "[17]", "result": "inconclusive: 15.8%"}
    ]},
    {"smiles": "COc1ccc2c3c1O[C@H]1C(=O)CC[C@H]4[C@@H](C2)N(C)CC[C@]314", "values": [
      {"measurement": "Potency", "setting": "[2]", "result": "inactive"},
      {"measurement": "ratio activity, negative = MMP loss", "setting": "[18]", "result": "inconclusive: -17.4%"},
      {"measurement": "Potency", "setting": "[12]", "result": "inconclusive [rising, partial curve, poor fit]"},
      {"measurement": "Potency", "setting": "[14]", "result": "inconclusive [rising, full curve, poor fit]"},
      {"measurement": "Potency", "setting": "[17]", "result": "inactive"}
    ]},
    {"smiles": "COC([CH2][Hg])CNC(=O)c1ccccc1OCC(=O)O", "note": "(stereo unspecified)", "values": [
      {"measurement": "Potency", "setting": "[2]", "result": "inconclusive"},
      {"measurement": "Potency", "setting": "[18]", "result": "inactive"},
      {"measurement": "Potency", "setting": "[4]", "result": "inconclusive [cytotoxic, full curve]"},
      {"measurement": "activation", "setting": "[10]", "result": "inconclusive: -6.19% [phenotype inactive]"},
      {"measurement": "Potency", "setting": "[14]", "result": "inactive"},
      {"measurement": "Potency", "setting": "[17]", "result": "inconclusive [activator, full curve]"}
    ]},
    {"smiles": "CC(C)(C)c1ccc(O)cc1", "values": [
      {"measurement": "Potency", "setting": "[18]", "result": "inconclusive [inhibitor, single point]"}
    ]},
    {"smiles": "CCC1C(C)=NN=C(c2ccc(OC)c(OC)c2)c2cc(OC)c(OC)cc21", "note": "(stereo unspecified)", "values": [
      {"measurement": "Potency", "setting": "[19]", "result": "inactive"},
      {"measurement": "ratio activity, negative = MMP loss", "setting": "[18]", "result": "inconclusive: 26.4%"},
      {"measurement": "Potency", "setting": "[4]", "result": "inconclusive [rising, partial curve, poor fit]"},
      {"measurement": "Potency", "setting": "[5]", "result": "inconclusive [rising, single point]"},
      {"measurement": "activity, negative = inhibition", "setting": "[11]", "result": "inconclusive: 17.4%"},
      {"measurement": "Potency", "setting": "[20]", "result": "inactive"},
      {"measurement": "Potency", "setting": "[17]", "result": "inactive"}
    ]}
  ]
}
